# Test results reported in article PMC4336329 (PLoS ONE, 2015).
# In all, about 310,000 compounds went through this assay and about 14,000 (4.5%) showed an effect of 50% or more. The effect is printed as a negative number. Some of the results follow.
# Molecular target: human ether-à-go-go-related gene (hERG) potassium channel (human, UniProt Q12809)
# Assay: primary screen, population patch clamp on CHO cells stably expressing hERG
# 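Note: peak tail current of the secondary pulse compared with the same well before compound.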
# Chain of human ether-à-go-go-related gene (hERG) potassium channel (Q12809 whole entry, looked up): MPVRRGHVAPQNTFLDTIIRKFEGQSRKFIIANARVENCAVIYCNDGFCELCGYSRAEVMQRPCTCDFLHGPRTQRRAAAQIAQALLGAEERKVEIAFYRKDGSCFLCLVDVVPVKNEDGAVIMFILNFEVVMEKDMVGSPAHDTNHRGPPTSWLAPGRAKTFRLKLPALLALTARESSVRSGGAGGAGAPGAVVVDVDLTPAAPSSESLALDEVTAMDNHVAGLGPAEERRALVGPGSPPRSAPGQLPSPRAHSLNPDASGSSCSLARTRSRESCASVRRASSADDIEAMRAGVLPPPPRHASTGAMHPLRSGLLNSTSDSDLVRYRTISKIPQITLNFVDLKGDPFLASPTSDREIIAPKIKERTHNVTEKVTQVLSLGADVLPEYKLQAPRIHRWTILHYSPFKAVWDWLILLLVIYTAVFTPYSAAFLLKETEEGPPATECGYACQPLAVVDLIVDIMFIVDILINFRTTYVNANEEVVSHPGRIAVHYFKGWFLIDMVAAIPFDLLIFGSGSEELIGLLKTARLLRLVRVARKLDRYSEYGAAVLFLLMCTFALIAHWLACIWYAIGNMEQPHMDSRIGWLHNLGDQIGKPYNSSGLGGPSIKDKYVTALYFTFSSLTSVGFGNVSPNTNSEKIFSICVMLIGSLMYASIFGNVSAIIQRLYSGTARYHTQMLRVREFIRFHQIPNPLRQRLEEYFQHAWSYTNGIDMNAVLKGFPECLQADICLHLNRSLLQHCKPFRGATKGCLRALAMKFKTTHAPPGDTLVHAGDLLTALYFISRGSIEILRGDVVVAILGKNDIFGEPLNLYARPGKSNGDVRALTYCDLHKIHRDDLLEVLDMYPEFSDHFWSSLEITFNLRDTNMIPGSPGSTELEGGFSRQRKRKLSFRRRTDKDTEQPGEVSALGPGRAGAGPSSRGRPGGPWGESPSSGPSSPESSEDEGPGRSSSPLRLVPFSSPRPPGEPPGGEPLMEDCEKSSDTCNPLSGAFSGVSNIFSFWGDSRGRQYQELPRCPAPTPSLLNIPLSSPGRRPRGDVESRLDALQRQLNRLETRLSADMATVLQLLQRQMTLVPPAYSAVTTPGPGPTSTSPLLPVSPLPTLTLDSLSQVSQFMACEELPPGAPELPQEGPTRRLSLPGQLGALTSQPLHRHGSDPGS
row,Structure (SMILES),"hERG current change (%, negative = inhibition) at 10uM"
1,O=c1c2ccccc2nnn1CSc1ccccc1F,6.47%
2,O=C(CC1SC(=Nc2ccccc2F)N(CCN2CCOCC2)C1=O)Nc1ccc(F)cc1F (centres unmarked),-13.1%
3,COc1ccc(S(=O)(=O)N2CCCN(CCC(=O)Nc3cccc(C(F)(F)F)c3)CC2)cc1,-69.6%
4,O=C1CCCc2oc3ccc(NS(=O)(=O)c4cccc5cccnc45)cc3c21,-0.328%
5,CCc1ccc(C(=O)C23CN4CN(CN(C4)C2)C3)cc1,-0.0263%
6,CC(C)NC(=O)c1cnc(N2CCN(c3ccccn3)CC2)c2ccccc12,-17.4%
7,CCOC(=O)N1CCN(C(=O)CSc2ccc3nnc(CCNC(=O)c4ccccc4)n3n2)CC1,9.93%
8,CCC(CC)C(=O)NCCNC(=O)C(CC)CC,2.51%
9,CC(NC(=O)Cc1cccs1)C(c1cccs1)N1CCOCC1 (centres unmarked),1.88%
10,CN(C)C=Nc1ccccc1C1C=NNC1=O (centres unmarked),3.88%
11,CC(=O)c1c(N2CCCC2)[nH]c(-c2ccccc2)nc1=S,-0.418%
12,COc1ccc(-c2cccc(NS(=O)(=O)c3cccc([N+](=O)[O-])c3)c2)nn1,-34.1%
13,CCOc1ccc(NC(=O)Cn2cc(C(C)=O)c3ccccc32)cc1,5.55%
14,COc1ccc(C(=O)c2oc3ccc(Br)cc3c2NC(C)=O)cc1,-0.375%
15,CCc1ccc(NS(=O)(=O)c2cc3[nH]c(=O)c(=O)[nH]c3cc2C)cc1,9.15%
16,CC(=O)c1ccc(S(=O)(=O)NCc2nnnn2-c2ccccc2)cc1,-0.0317%
17,NCCCC[C@H]1CNC(=O)C(=O)N1CC1CCCCC1,1.26%
18,Cc1ccc(N2C(=O)[C@@H]3C(c4cccnc4)=NO[C@@H]3C2=O)c(C)c1,22.3%
19,C[C@]12CC[C@H]3[C@@H](CCC4=CC(=O)CC[C@@]43O)[C@@H]1CCC2=O,3.13%
20,COc1ccc(C(=O)Nc2cccc(C(=O)N/N=C/c3ccc(OC)cc3OC)c2)cc1,-1.54%
21,CC1(C)CC(NC(=O)COc2ccc([N+](=O)[O-])cc2)CC(C)(C)N1,-28.7%
22,O=C(COC(=O)c1cccnc1Nc1ccccc1F)NCCN1C(=O)CSC1=O,-27.7%

row,Structure (SMILES),"hERG current change (%, negative = inhibition) at 10uM"
1,O=C(NCc1nnc(SCC(=O)N2CCC(Cc3ccccc3)CC2)o1)c1ccco1,-23.9%
2,O=C(COc1ccc(Br)cc1)NCCNC(=O)c1ccccn1,-22.5%
3,CC1CCN(c2ncnc3c2cnn3Cc2ccc(Cl)cc2)CC1,-11.8%
4,CN1C(=O)CN=C(c2ccc(Cl)cc2)c2cc(Cl)ccc21,-33.8%
5,NC(=O)c1ccc(NC(=O)CN2C(=O)NC(c3ccccc3)(c3ccccc3)C2=O)cc1,3.45%
6,CCCC(=O)C1=C(O)C(C(=O)OC)C(C)(C)CC1=Nc1ccc(Br)cc1 (centres unmarked),3.52%
7,CC1C(=O)CCN(C(C)C)C1C.Cl (centres unmarked),8.54%
8,O=C(COC(=O)Cc1ccccc1F)Nc1ccc(SC(F)F)cc1,-5.59%
9,Cc1cccc(OCc2ccc(C(=O)Nc3cc(C)on3)o2)c1,18.7%
10,COC(=O)C1=C(c2ccccc2)C[C@@H]2CC[C@H]1N2C,24%
11,Nc1nc2c(c(=O)[nH]1)CN(Cc1ccccc1)CC2,7.8%
12,CC(=O)n1cc([C@@H]2C=C(C(=O)N3CCN(Cc4ccc5c(c4)OCO5)CC3)O[C@H](OCCCCO)C2)c2ccccc21,-50.2%
13,CCOc1ccc(CN2CCCC(CO)(Cc3ccc(F)cc3)C2)cc1 (centres unmarked),-62%
14,CCCCCCc1cc2cc(C(=O)Nc3cccc(OC)c3)c(=O)oc2cc1O,25%
15,O=C(Nc1ccccc1-c1ccccc1)c1ccccc1Br,6.82%
16,COCCN(C(=S)Nc1ccccc1C)C(C)c1cccnc1 (centres unmarked),-13.4%
17,CCOc1ccc2nc(NCCNC(=O)CC)c(C#N)cc2c1,-12%
18,O=C(COc1ccccc1Cl)NC(=O)NC1CCCCC1,5.11%
19,CCN(CC)C(=O)c1c(C)nc2ccccn12,11.2%
20,COc1ccccc1NC(=O)NCC(c1ccco1)N1CCCCC1 (centres unmarked),14.8%
21,Nc1nnc(SCCN2C(=O)c3ccccc3C2=O)s1,-10.7%
22,CCCCCCCc1c(O)nc(SCCN(C)C)[nH]c1=O.Cl,-5.87%
